Results on 48 molecules are retold here after PubChem BioAssay AID1508623 (National Center for Advancing Translational Sciences (NCATS), 2021).

The whole screen tested about 48,000 compounds, of which about 450 (0.94%) were called active. Another 19% or so got no clear call; they are omitted. The call rests on the fitted dose curve; in most records, active means well fitted inhibition curve with a large enough effect; inconclusive means small, poorly fitted or top-dose-only effect; inactive means no such curve, though single readings can be large or run the other way. Some of the results follow.

The assay is described as follows: Primary qHTS for Identification of Small Molecule Inhibitors of Huntingtin Promoter Activity. Further: nearly all actives have a fitted effect of over 50% in size. The note with it: HEK293 HTT promoter firefly luciferase reporter (activity 0% = vehicle and -100% = no light), 24 h; series mostly up to 57.5 µM; activity change, negative = inhibition: at the top concentration. In short, it runs like this: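 Firefly luciferase readout (Dual-Glo, 10 min RT) after 24 h, 37 °C compound exposure (final up to 57.5 uM) of HEK293 reporter cells cultured 24 h beforehand; PTC124 at 50 uM final as control inhibitor; activity scaled vehicle 0%, zero RLU -100%.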
For orientation: In qHTS, concentration-response curves come from the screen itself.
As for `Cc1ccccc1NC(=O)Cn1c(=O)n(Cc2ccco2)c(=O)c2ccc(C(=O)NC3CCCC3)cc21`, the “activity change, negative = inhibition” value is inactive: -10.1%.

Take `Cc1cc(-c2ccccc2)nc2cc(C(=O)Nc3ccc(Cl)c(Cl)c3)nn12`: the “activity change, negative = inhibition” value was inactive: -1.21%. `COc1ccccc1C(=O)NC1(C(F)(F)F)C(=O)NC(C)=C1C#N` (stereo not drawn): the “activity change, negative = inhibition” value was inactive: -11.8%. The value for `COc1ccccc1N1CCN(C(=O)C2CCN(S(=O)(=O)c3cccs3)CC2)CC1` was inactive: -3.54%.

Turning to `Cc1ccccc1NC(=O)Cn1nnc(C(=O)NCc2ccco2)c1N`, the “activity change, negative = inhibition” value was inactive: -20.4%. As for `COc1cc(OC)c(NC(=O)c2nn(C)c3c2COc2ccccc2-3)cc1Cl`, the “activity change, negative = inhibition” value is inactive: -9.18%. The value for `Cc1ccc(C)c(Cn2c(=O)n(CCc3ccccc3)c(=O)c3c(C)c(C)sc32)c1` was inactive: 10.4%; that for `COc1ccc(Cn2nc3n(c2=O)-c2ccccc2OC3)cc1` was inactive: 10%. With `Cc1cccc(C(=O)Nc2nnc(S(=O)(=O)N3CCOCC3)s2)c1`, the “activity change, negative = inhibition” value was inactive: 13.5%. With `Cc1ccc(-c2nnc(Nc3cccc(Br)c3)c3ccccc23)cc1S(=O)(=O)N1CCN(C)CC1` the figure was inactive: -16.8%.

Turning to `O=C(Nc1ccccc1)c1cc2c(-c3ccccc3)nn(-c3ccccc3)c2s1`, the “activity change, negative = inhibition” value was inactive: -8.79%. With `CCOc1ccc(OC(=O)c2sc3ncn(Cc4cccc(F)c4)c(=O)c3c2C)cc1` the figure was inactive: -21.1%; with `O=C(CSc1c2c(nc3ccc(Cl)cc13)CCCC2)N1CCN(c2ccc(Cl)cc2)CC1`, inactive: 2.12%; with `COc1ccc(OC)c(NC(=O)C(Cc2ccccc2)NS(=O)(=O)c2ccc3c(c2)CCC(=O)N3)c1` (stereo not drawn), inactive: -9.19%. Regarding `CCN(CC)S(=O)(=O)c1ccc2c(c1)N(CC(=O)Nc1cccc(C(C)=O)c1)C(=O)CO2`, the “activity change, negative = inhibition” value is inactive: -15.5%. With `O=C(Nc1ccc(Br)cc1)Nc1nc2c(s1)CCCCCC2`, the “activity change, negative = inhibition” value is inactive: -10.4%. The value for `O=C(COCc1cc(-c2ccc3c(c2)OCO3)on1)Nc1cccc(O)c1` was inactive: -3.6%; that for `CCC(=O)N1c2ccccc2CC1C(=O)NCCCN1CCN(c2ccc(F)cc2)CC1` (stereo not drawn) was inactive: -2.54%. The value for `Cc1ncc(CSSCc2cnc(C)c(O)c2CO)c(CO)c1O` was inactive: 5.54%; that for `Cc1cccc(C(=O)n2nc(-c3ccco3)nc2NCc2ccccc2)c1` was inactive: 26.1%. For the molecule `COc1ccc(-c2cc(C(F)(F)F)nc(NCc3ccccc3)n2)cc1OC`, the “activity change, negative = inhibition” value was inactive: -26.9%. As to `CC1CCc2c(sc3nnn(CC(=O)Nc4cccc(C(F)(F)F)c4)c(=O)c23)C1` (stereo not drawn), the “activity change, negative = inhibition” value is inactive: -24.9%. As for `CCc1ccc2oc(-c3cccc(NC(=O)c4ccc(-c5cccc([N+](=O)[O-])c5)o4)c3)nc2c1`, the “activity change, negative = inhibition” value was inactive: 46.1%. As for `CCOc1ccc(Br)cc1C1C(C(=O)Nc2ccccc2OC)=C(C)Nc2nnnn21` (stereo not drawn), the “activity change, negative = inhibition” value is inactive: -17.5%. For `Cc1cccc(OC(C)C(=O)N2CCC(c3nc4ccccc4o3)CC2)c1C` (stereo not drawn), the “activity change, negative = inhibition” value is inactive: -21.2%. Consider `CCn1c(=O)c(=O)n(CC)c2cc(N3CCCCC3)c(NC(=O)c3cccc(OC)c3)cc21`, for which the “activity change, negative = inhibition” value was inactive: -5.5%. The value for `CC(=O)N1c2ccc(S(=O)(=O)NCCc3cccc(C)c3)cc2CC1C` (stereo not drawn) was inactive: 0%. With `CCOc1cccc(NC(=O)CSc2ncc(-c3ccc(Cl)cc3)[nH]2)c1`, the “activity change, negative = inhibition” value was inactive: -18.8%. With `COc1ccc(-n2c(=O)c3c4c(sc3n(Cc3ccccc3)c2=O)CCC4)c(OC)c1` the figure was inactive: -27.5%. For the molecule `CC1(C)OC(=O)NC1=O`, the “activity change, negative = inhibition” value was inactive: 2.02%. The value for `Cc1ccc(NC(=O)CC2Sc3ccccc3NC2=O)c(C)c1` (stereo not drawn) was inactive: -26.2%.

Take `CCOC(=O)c1ccc(-c2ccc(/C=C(\C#N)C(=O)Nc3cccc(C)c3)o2)cc1`: the “activity change, negative = inhibition” value was inactive: 4.41%.

`CN(N=O)C(=O)N[C@H]1C(O)OC(CO)[C@@H](O)[C@H]1O` (stereo partly drawn): the “activity change, negative = inhibition” value is inactive: 2.82%. The value for `CCN(C(=O)c1cc(S(=O)(=O)N2CCCCC2)c[nH]1)c1ccc(OC)cc1` was inactive: -18.9%.

On to `CCOc1ccc(-n2c(-c3ccc(OC)cc3)cc3c2CC(C)(C)CC3=O)cc1`, for which the “activity change, negative = inhibition” value is inactive: -33.7%. With `C=Cc1ccc(CSc2nc(-c3ccc(Cl)cc3)nc3c2Cc2c(CO)cnc(C)c2O3)cc1` the figure was inactive: -17.2%. Regarding `COc1cc(Cl)c(C)cc1NC(=O)CSCc1nc(-c2ccc(OC)c(OC)c2)no1`, the “activity change, negative = inhibition” value was inactive: -17.9%.

As for `Cc1ccc(C)c(Cn2cc(CCC(=O)NC3CCCCC3)c3ccccc32)c1`, the “activity change, negative = inhibition” value is inactive: -17.7%. The value for `Cc1cccc(C)c1NC(=O)C1CCN(S(=O)(=O)c2cccc3nsnc23)CC1` was inactive: -5.43%; that for `Cc1ccc(NC(=O)Cn2ccn(Cc3ccc(Cl)cc3)c(=O)c2=O)cc1C` was inactive: -0.612%. With `COc1ccc(-c2nc(SCC(=O)NC3CCCC3)c(-c3ccccc3)[nH]2)cc1OC` the figure was inactive: -3.85%; with `COc1ccc(OC)c(Nc2cc(C(=O)NCc3ccccc3)c3ccccc3n2)c1`, inactive: -21.6%. The value for `Cc1ccc(-n2ncc3c(Nc4ccc5c(c4)OCCO5)ncnc32)cc1C` was inactive: -9.05%; that for `CCOc1ccccc1C(=O)N1CCc2cc(OC)c(OC)cc2C1COc1ccc2c(C)cc(=O)oc2c1` (stereo not drawn) was inactive: -17.3%. Regarding `Cc1ccc(OCCSc2nc3ccccc3n2CCC(=O)O)cc1C`, the “activity change, negative = inhibition” value is inactive: 2.18%. In the case of `CCOc1ccc(NC(=O)NC(CC)Cn2nnc3ccccc3c2=O)cc1` (stereo not drawn), the “activity change, negative = inhibition” value is inactive: -6.84%.

As for `CCN1CCN(C(c2ccc(Cl)cc2)c2c(O)cc(C)n(CCOC)c2=O)CC1` (stereo not drawn), the “activity change, negative = inhibition” value was inactive: -10.4%. The value for `Cc1nc2ncnn2c(C)c1CCC(=O)NCc1ccc(Cl)cc1` was inactive: -7.08%.
